# Over roughly 81,000 sequences, “one-hybrid fitness for binding NBS DNA” has its median near -0.1; the highest 2% begin near 0.36. This is one part of the list.
# B1: Caulobacter ParB omega fusion; a variant is named by its letters at X, in order, B8GW30 (parent)
# chain: MESVVVGEPGMSEGRRGLGRGLSALLGEVDAAPAQAPGEQLGGSREAPIEILQRNPDQPRRTFREEDLEDLSNSIREKGVLQPILVRPSPDTAGEYQIVAGERAWRAAQRAGLKTVPIMVRELDDLAVLEIGIIENVQRADLNVLEEALSYKVLMEKFERTQENIAQTIGKSXSHVANXMRLLXLPDEVQSYLVSGELTAXHARAIAAAADPVALAKQIIEGGLSVRETEALARKAPNLSAGKSKGGRPPRVKDTDTQALESDLSSVLGLDVSIDHRGSTGTLTITYATLEQLDDLCNRLTRGI
# Variants of: B1
# Test: one-hybrid fitness for binding NBS DNA (the Noc-binding site; scaled: cognate 1, non-cognate 0); higher = stronger binding
# Details: with NBS DNA site
# Procedure, shortened: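 Fitness is the rescaled log change in variant-to-wild-type read ratio, measured by Illumina sequencing of plasmids before and after bacterial one-hybrid selection. The scale puts cognate at 1 and non-cognate at 0. Selection of Caulobacter ParB libraries, four specificity codons randomised, took place in E. coli USO with a HIS3 reporter, site 19 bp from the promoter, over 48 hours at 37°C on M9-minus-histidine with 0.1 mM IPTG and 5 mM 3-AT.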
row,Variant,one-hybrid fitness for binding NBS DNA
1,HMCC,≤ 0.2
2,WSHF,≤ 0.2
3,MLMV,≤ 0.2
4,TFQC,≤ 0.2
5,ENSM,≤ 0.2
6,PLCA,≤ 0.2
7,TQGR,≤ 0.2
8,CGPL,≤ 0.2
9,MAWW,≤ 0.2
10,CNYG,≤ 0.2
11,CVKF,≤ 0.2
12,QQWS,0.397
13,AKRT,≤ 0.2
14,AHLF,≤ 0.2
15,INAS,≤ 0.2
16,QKVC,≤ 0.2
17,LHQW,≤ 0.2
18,TTTF,≤ 0.2
19,GPPQ,≤ 0.2
20,RDTM,≤ 0.2
21,HMPT,≤ 0.2
22,NDQS,≤ 0.2
23,QMDY,≤ 0.2
24,SLCC,≤ 0.2
25,TRDT,≤ 0.2
26,KRVK,≤ 0.2

row,Variant,one-hybrid fitness for binding NBS DNA
1,LKMH,≤ 0.2
2,YHKT,≤ 0.2
3,AKKP,≤ 0.2
4,GKVR,≤ 0.2
5,PDGT,≤ 0.2
6,LLMR,≤ 0.2
7,YEHY,≤ 0.2
8,KTQS,≤ 0.2
9,VSNC,≤ 0.2
10,QALH,≤ 0.2
11,LRLL,≤ 0.2
12,DYKG,≤ 0.2
13,LLAY,≤ 0.2
14,IIQR,≤ 0.2
15,HCFY,≤ 0.2
16,SAST,≤ 0.2
17,TLFQ,≤ 0.2
18,NQPV,≤ 0.2
19,SWNS,≤ 0.2
20,HPST,≤ 0.2
21,GITC,≤ 0.2
22,TQAL,≤ 0.2
23,NINC,≤ 0.2
24,YIGS,≤ 0.2
25,LAMR,≤ 0.2
26,LFPC,≤ 0.2

row,Variant,one-hybrid fitness for binding NBS DNA
1,AVTA,≤ 0.2
2,IMTG,≤ 0.2
3,DVVA,≤ 0.2
4,AGHY,≤ 0.2
5,YSLT,≤ 0.2
6,KCIW,≤ 0.2
7,DKAW,≤ 0.2
8,WCYE,≤ 0.2
9,ITVS,≤ 0.2
10,VCGR,≤ 0.2
11,NMMS,≤ 0.2
12,EYSL,≤ 0.2
13,RSFV,≤ 0.2
14,HRNY,≤ 0.2
15,RMHS,0.486
16,GPAR,≤ 0.2
17,TPEL,≤ 0.2
18,WCCG,≤ 0.2
19,RNLF,≤ 0.2
20,TRDD,≤ 0.2
21,MTVV,≤ 0.2
22,HVAC,≤ 0.2
23,PFMT,≤ 0.2
24,RWTP,≤ 0.2
25,GTMS,≤ 0.2
26,KDCR,≤ 0.2

row,Variant,one-hybrid fitness for binding NBS DNA
1,NTTW,≤ 0.2
2,SMRG,≤ 0.2
3,GSPI,≤ 0.2
4,FVPR,≤ 0.2
5,ARYK,≤ 0.2
6,GHIT,≤ 0.2
7,EAPM,≤ 0.2
8,ILLG,≤ 0.2
9,VMNF,≤ 0.2
10,CART,≤ 0.2
11,QMIK,≤ 0.2
12,LYRI,≤ 0.2
13,FNGC,≤ 0.2
14,WSTL,≤ 0.2
15,AGAG,≤ 0.2
16,DSIV,≤ 0.2
17,PKSS,≤ 0.2
18,PWYF,≤ 0.2
19,MYSR,≤ 0.2
20,SILT,≤ 0.2
21,RCQI,≤ 0.2
22,SHRL,≤ 0.2
23,ASKT,≤ 0.2
24,NWNL,≤ 0.2
25,LCMR,≤ 0.2
26,WIPI,≤ 0.2

row,Variant,one-hybrid fitness for binding NBS DNA
1,DGRR,≤ 0.2
2,AHMW,≤ 0.2
3,NQER,≤ 0.2
4,EVYV,≤ 0.2
5,PVPC,≤ 0.2
6,HYTC,≤ 0.2
7,PTTG,≤ 0.2
8,YMRS,≤ 0.2
9,TMWC,≤ 0.2
10,AWVR,≤ 0.2
11,SHNK,≤ 0.2
12,TTLP,≤ 0.2
13,QRKS,0.778
14,CAKT,≤ 0.2
15,HCPL,≤ 0.2
16,KYYF,≤ 0.2
17,QTEQ,≤ 0.2
18,IYVR,≤ 0.2
19,VNHT,≤ 0.2
20,FRLL,≤ 0.2
21,WASG,≤ 0.2
22,RWRY,≤ 0.2
23,ATPM,≤ 0.2
24,MKVC,≤ 0.2
25,WLVS,≤ 0.2
26,IINP,≤ 0.2

row,Variant,one-hybrid fitness for binding NBS DNA
1,CMRG,≤ 0.2
2,PYFF,≤ 0.2
3,HDNT,≤ 0.2
4,RGIL,≤ 0.2
5,HSLF,≤ 0.2
6,RYWQ,≤ 0.2
7,VTST,≤ 0.2
8,MTEL,≤ 0.2
9,CMNR,≤ 0.2
10,QNVF,≤ 0.2
11,YFDC,≤ 0.2
12,MTCC,≤ 0.2
13,CRIN,≤ 0.2
14,LWTV,≤ 0.2
15,NQMP,≤ 0.2
16,SVNS,≤ 0.2
17,MMTR,≤ 0.2
18,PGMY,≤ 0.2
19,LLNS,≤ 0.2
20,MFNG,≤ 0.2
21,HKVG,≤ 0.2
22,MPVM,≤ 0.2
23,KFCR,≤ 0.2
